Experimental data published in the GPR68 mutational scans of Howard et al. (2025).
Scores whose standard error is large were omitted. The source holds two more conditions with little spread; they are left out. In variant names, del marks residues removed and ins residues inserted between the two positions. For some of these results: How much ogerin was present is not stated here.

B1: GPR68, Q15743 (parent)
chain: MGNITADNSSMSCTIDHTIHQTLAPVVYVTVLVVGFPANCLSLYFGYLQIKARNELGVYLCNLTVADLFYICSLPFWLQYVLQHDNWSHGDLSCQVCGILLYENIYISVGFLCCISVDRYLAVAHPFRFHQFRTLKAAVGVSVVIWAKELLTSIYFLMHEEVIEDENQHRVCFEHYPIQAWQRAINYYRFLVGFLFPICLLLASYQGILRAVRRSHGTQKSRKDQIQRLVLSTVVIFLACFLPYHVLLLVRSVWEASCDFAKGVFNAYHFSLLLTSFNCVADPVLYCFVSETTHRDLARLRGACLAFLTCSRTGRAREAYPLGAPEASGKSGAQGEEPELLTKLHPAFQTPNSPGSGGFPTGRLA

Columns and labels:
[1] = variants of: B1; assay: cAMP reporter score (Enrich2 score, wild type = 0); higher = more signal; HEK293T, FACS bins
[2] = variants of: B1; assay: surface expression score (Enrich2 score, wild type = 0); higher = more signal; HEK293T, FACS bins

| Variant | cAMP reporter score ([1]; pH 5.5) | cAMP reporter score ([1]; pH 6, modulator: ogerin) | cAMP reporter score ([1]; pH 6.5, modulator: ogerin) | surface expression score [2] | cAMP reporter score ([1]; pH 6) |
| --- | --- | --- | --- | --- | --- |
| I226P | -0.976 | -1.06 | -1.48 | -0.042 |  |
| I226Q | -1.86 | -1.47 | -1.21 | 0.112 | -1.19 |
| I226R | -0.753 | -1.31 | -0.972 | 0.033 | 0.03 |
| I226S | -1.06 | -0.992 | -1.05 | 0.3 | -1.37 |
| I226T | -0.845 | -0.58 |  | 0.479 | -1.55 |
| I226V | -0.77 | -0.469 | -0.477 | -0.146 | -0.571 |
| I226W | -0.828 | -1.02 | -0.526 | -0.052 | -0.909 |
| I226Y | -1.52 | -2.35 | -0.986 | 0.245 | -1.26 |
| I226_Q227del | -0.782 | -1.02 | -1.08 | 0.79 | -1.35 |
| I226_Q227insGSG | -0.977 | -0.803 | -0.648 | 0.215 | -1.13 |
| Q227_R228del | -0.454 | -0.894 | -0.612 | -0.099 | -1.58 |
| Q227_R228insGS | -1.53 | -0.929 | 0.008 | 1.22 | -1.34 |
| R228_L229insGS | -1.76 |  | -0.038 |  |  |
| L229_V230insG | -1.47 |  | -0.632 | -2.86 | -0.827 |
| L229del | -1.54 | -1.54 | -1.64 | -2.24 | -1.26 |
| V230_L231del | -1.9 | -1.84 | -0.663 | -1.67 | -0.543 |
| L231_S232del | -1.33 |  | -0.448 | -3.78 | -1.65 |
| L231_S232insGSG | -1.84 | -1.99 | -1.33 | -2.17 | -1.38 |
| S232A | -0.017 | -0.05 | -0.236 | 0.377 | -1.19 |
| S232C | -0.492 | -0.738 | -0.357 | -0.712 | -0.347 |
| S232D | -0.374 | -2.23 | -1.41 | -2.28 |  |
| S232E | -1 |  | -0.724 | -2.57 | -0.107 |
| S232F | 0.713 | 1.01 | 0.741 | -0.176 | 1.57 |

| Variant | cAMP reporter score ([1]; pH 5.5) | cAMP reporter score ([1]; pH 6, modulator: ogerin) | cAMP reporter score ([1]; pH 6.5, modulator: ogerin) | surface expression score [2] | cAMP reporter score ([1]; pH 6) |
| --- | --- | --- | --- | --- | --- |
| S232G | 0.171 | 0.334 | -0.145 | 0.174 | 0.04 |
| S232H | 0.666 | 0.593 | -1.99 | -0.825 | 2.01 |
| S232I | 0.44 | 0.577 | 0.588 | -0.362 | 2.05 |
| S232K | 0.991 | 0.215 |  |  | 1.97 |
| S232L | 0.606 | -0.147 |  | -0.384 | 1.71 |
| S232M | 1.35 | 0.687 | 0.659 | 0.594 | 1.46 |
| S232N | -0.343 | -0.601 | -0.149 | -1.33 | -1.35 |
| S232P | -1.72 | -1.09 | -0.188 | -0.904 | 1.3 |
| S232Q | -0.482 |  |  | -0.409 |  |
| S232R | -0.541 | -1.06 | -1.07 | -2.19 | -0.437 |
| S232T | 0.46 | 0.769 | -0.462 | 1.27 | -0.745 |
| S232V | 0.281 | 0.438 | 0.639 | 1.01 |  |
| S232W | 0.724 | 0.803 | 1.15 | -0.028 |  |
| S232Y | 0.748 | 0.449 | 0.59 | -0.437 | 1.33 |
| T233A | -1.82 |  | -1.43 | -0.47 | -1.14 |
| T233C | -0.693 | -1.88 |  | 1.05 | 0.183 |
| T233D | 0.253 | -0.703 | -0.485 |  |  |
| T233F | -0.033 | -0.336 |  | -2.34 |  |
| T233G | -0.247 | -1.5 | -1.5 | -0.602 | -0.144 |
| T233H | -0.383 | -0.779 | -1.58 |  | 0.188 |
| T233I | -0.58 | -1.01 | -0.72 | 0.48 | 0.033 |
| T233L | -0.221 | -0.059 | -0.495 | -0.558 | -0.188 |
| T233M | -1.41 | -1.23 | -1.77 | -1.12 | -1.2 |

| Variant | cAMP reporter score ([1]; pH 5.5) | cAMP reporter score ([1]; pH 6, modulator: ogerin) | cAMP reporter score ([1]; pH 6.5, modulator: ogerin) | surface expression score [2] | cAMP reporter score ([1]; pH 6) |
| --- | --- | --- | --- | --- | --- |
| T233N | -0.228 | -0.495 | 0.063 | -1.04 | 0.362 |
| T233P | -1.74 | -1.6 |  | -2.86 |  |
| T233Q | 1.42 | 0.313 | 2.28 | -0.395 | 2.5 |
| T233R | -2.08 | -1.26 | -2.74 | -2.46 | -0.78 |
| T233S | -0.133 | 1.13 | -0.112 | -0.595 |  |
| T233V | -0.866 | -1.68 | -0.666 | 0.023 | -0.366 |
| T233W | -1.7 | -0.994 | -1.72 | -2.42 | -0.952 |
| T233Y | -0.387 | -0.577 |  | -0.289 |  |
| V235A | 1.8 | 2.39 | 2.7 | 0.223 | 3.99 |
| V235C | -0.485 | -0.231 | 1.33 | 0 | -0.688 |
| V235D | -0.783 | -1.29 | -0.635 | -0.745 | -0.648 |
| V235E | -0.635 |  | -0.917 | -1.65 |  |
| V235F | 0.135 | -0.558 | 0.06 | -0.195 | 0.064 |
| V235G | 0.908 | 2.02 | 3.62 |  | 1.74 |
| V235H | -1.19 |  |  | -0.302 |  |
| V235I | 0.369 | 0.484 | 0.544 | 0.409 | 0.707 |
| V235K | -0.978 |  | -0.03 | -2.85 | -1.18 |
| V235L | 0.882 | 0.971 | 1.74 | 1.06 | 1.53 |
| V235N | -0.845 | -0.621 | -0.232 | -1.76 |  |
| V235P | -1.38 | -1.49 | -0.761 | -3.49 | -1.38 |
| V235Q | -1.22 | -0.945 | -1.73 | -1.7 | -1.31 |
